The list shows a part of the results. The full chains were built here from the parent and the listed change. Values near 0.05 are background.
B1: TEV protease; numbered along this chain (parent)
chain: MGESLFKGPRDYNPISSSICHLTNESDGHTTSLYGIGFGPFIITNKHLFRRNNGTLVVQSLHGVFKVKDTTTLQQHLVDGRDMIIIRMPKDFPPFPQKLKFREPQREERICLVTTNFQTKSMSSMVSDTSCTFPSGDGIFWKHWIQTKDGQCGSPLVSTRDGFIVGIHSASNFTNTNNYFTSVPKNFMELLTNQEAQQWVSGWRLNADSVLWGGHKVFMVKPEEPFQPVKEATQL

Variants of: B1
Test: raw area under fraction-flipped curve 0-4 h after induction (AUC4h, not background-subtracted), DNA-recorder readout of cleavage of the substrate (dimensionless); higher = more cleavage of the substrate by the protease variant
Details: temperature: 34 °C; time window: 0-4 h after rhamnose induction
Experimental: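 In vivo DNA recorder in E. coli TOP10(DE3) ΔrhaA at 34 °C. Each TEVp single-site mutant (parent TEVp 0) is paired with a single-site variant of the 7-mer TEVs (canonical ENLYFQ|S). The substrate sits between flexible linkers in a Bxb1-sfGFP-TEVs-SsrA fusion, so cleavage stabilises Bxb1 and speeds flipping of a recombination array, read by NGS. The value is the raw area under the fraction-flipped curve over 0-4 h after rhamnose induction (AUC4h), with ≥20 reads per time point. It is not background-subtracted; inactive controls average about 0.047.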
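Further: Bxb1 expression induced with 0.2% (w/v) L-rhamnose at OD600 near 0.5, cultures sampled hourly, flipped fraction per protease–substrate barcode pair counted by paired-end Illumina sequencing.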

Row | Variant | area with substrate ENLAFQS | area with substrate ENLCFQS | area with substrate ENLDFQS | area with substrate ENLEFQS | area with substrate ENLFFQS | area with substrate ENLGFQS | area with substrate ENLHFQS | area with substrate ENLIFQS | area with substrate ENLKFQS | area with substrate ENLLFQS | area with substrate ENLMFQS | area with substrate ENLNFQS | area with substrate ENLPFQS | area with substrate ENLQFQS | area with substrate ENLRFQS | area with substrate ENLSFQS | area with substrate ENLTFQS | area with substrate ENLVFQS | area with substrate ENLWFQS
1 | G63W | 0.0659 | 0.0629 | 0.0507 | 0.0624 | 0.0818 | 0.0491 | 0.0624 | 0.0797 | 0.0762 | 0.0642 | 0.0723 | 0.0645 | 0.0552 | 0.106 | 0.061 | 0.0539 | 0.0941 | 0.0762 | 0.0663
2 | D79N | 0.056 | – | – | – | 0.064 | – | 0.053 | – | 0.102 | 0.0374 | – | 0.0544 | 0.0338 | 0.0888 | 0.0665 | 0.0437 | – | 0.0851 | –
3 | M88N | 0.0504 | 0.0601 | 0.0496 | 0.062 | 0.0809 | 0.0774 | 0.0637 | 0.0541 | 0.0563 | 0.0592 | – | 0.0526 | 0.0357 | – | 0.0675 | 0.0497 | – | – | –
4 | M88V | 0.0576 | 0.0778 | 0.0534 | – | 0.0884 | – | 0.075 | – | 0.0668 | – | – | 0.06 | – | 0.0313 | 0.0683 | 0.0609 | – | – | –
5 | M88P | 0.0544 | – | 0.0581 | 0.0541 | 0.0743 | – | 0.0569 | 0.077 | 0.0637 | 0.0733 | – | – | 0.0618 | 0.0461 | 0.0656 | 0.0515 | – | 0.0789 | –
6 | M88R | 0.0589 | 0.0458 | 0.0529 | – | 0.0334 | – | 0.0339 | – | – | – | – | 0.0454 | 0.0461 | 0.0594 | – | 0.0539 | 0.0466 | 0.0562 | 0.0431
7 | M88F | 0.0569 | 0.0892 | 0.0575 | – | 0.0713 | – | – | – | 0.0695 | – | – | 0.0553 | – | 0.0955 | 0.0554 | – | – | – | 0.0524
8 | M88T | 0.0479 | 0.074 | – | 0.055 | 0.0883 | – | – | – | 0.0728 | 0.0636 | – | 0.0687 | – | 0.0766 | – | 0.0586 | – | – | –
9 | T55V | 0.0594 | – | 0.0518 | 0.0651 | 0.0904 | – | 0.0523 | 0.0868 | 0.0757 | 0.0631 | 0.0782 | 0.0655 | 0.0524 | 0.0732 | 0.0815 | 0.049 | – | – | –
10 | K68R | 0.0712 | – | 0.0474 | – | 0.0747 | – | 0.0729 | 0.0905 | 0.0924 | 0.0384 | – | 0.0663 | 0.0745 | 0.117 | 0.0754 | 0.0603 | – | – | 0.0697
11 | L48T | 0.0517 | 0.0725 | 0.0652 | 0.0647 | 0.0789 | 0.0733 | 0.0555 | 0.0717 | 0.0593 | 0.0557 | – | 0.0628 | 0.0559 | 0.0726 | 0.0703 | 0.0506 | 0.0848 | 0.0587 | –
12 | L48P | 0.0676 | 0.0643 | 0.0546 | 0.063 | – | 0.0472 | 0.0299 | – | 0.0692 | – | 0.139 | 0.0509 | 0.0532 | – | 0.0566 | 0.0537 | – | – | 0.0609
13 | L48D | 0.0617 | 0.063 | 0.0655 | 0.0689 | 0.0685 | 0.056 | 0.0629 | 0.0674 | 0.0725 | 0.0412 | 0.0581 | 0.0649 | 0.0653 | 0.0623 | 0.0531 | 0.0573 | – | – | 0.0616
14 | G80D | 0.0755 | 0.0489 | 0.0228 | 0.0617 | 0.0787 | – | 0.0817 | 0.0751 | 0.0894 | – | – | 0.0651 | 0.0471 | 0.0628 | 0.0711 | – | – | – | 0.0651
15 | G80A | 0.0745 | 0.0655 | – | 0.0638 | 0.0968 | – | 0.0727 | – | 0.0976 | 0.0778 | – | – | 0.0614 | 0.0749 | – | 0.0358 | – | 0.0707 | –
16 | G80Q | 0.0669 | 0.0788 | 0.0706 | 0.061 | 0.0908 | – | 0.0711 | 0.0939 | 0.0645 | 0.0625 | 0.063 | 0.0643 | 0.0608 | 0.0767 | 0.0913 | 0.0646 | – | 0.0668 | 0.0686
17 | G80M | 0.06 | – | 0.0687 | 0.0949 | 0.0975 | 0.0588 | – | 0.0686 | 0.0836 | – | 0.066 | 0.0661 | 0.0671 | – | – | – | 0.0668 | – | –
18 | G80E | 0.076 | 0.0736 | 0.0683 | – | 0.093 | – | – | – | 0.0765 | 0.0787 | – | 0.0591 | – | 0.0682 | 0.0838 | 0.0686 | – | 0.113 | –
19 | G80I | 0.0524 | – | 0.0442 | 0.0575 | 0.0599 | 0.0613 | 0.0581 | 0.0674 | 0.0655 | – | – | 0.0562 | 0.0535 | – | 0.0516 | 0.0629 | – | – | –
20 | K98W | 0.0659 | 0.0763 | 0.0718 | 0.0554 | 0.0779 | – | – | 0.0796 | 0.0622 | 0.0678 | – | 0.0566 | 0.0728 | 0.0548 | 0.0637 | 0.0612 | – | – | 0.0475
21 | H76C | 0.0716 | – | 0.0649 | 0.068 | 0.0978 | 0.071 | 0.0685 | 0.109 | 0.0808 | 0.0671 | – | 0.0619 | 0.0721 | 0.0789 | 0.0721 | – | – | 0.0896 | –
22 | L77F | 0.0638 | 0.062 | 0.0555 | 0.0622 | 0.0678 | – | 0.0593 | 0.0701 | 0.0661 | 0.0761 | 0.0658 | 0.0715 | 0.041 | 0.0526 | 0.057 | 0.052 | – | 0.0816 | 0.07
23 | L77K | 0.0578 | – | – | 0.0611 | 0.058 | 0.0562 | 0.0707 | – | 0.0744 | 0.0517 | – | 0.0769 | 0.0565 | – | 0.0556 | – | – | – | 0.0406
24 | F101N | 0.0434 | – | 0.0413 | 0.0445 | 0.0508 | – | 0.0264 | 0.0477 | – | – | 0.0644 | 0.0522 | 0.0551 | – | – | 0.052 | – | – | 0.031
25 | D69P | 0.0606 | 0.0883 | 0.0713 | – | 0.0837 | – | 0.0668 | 0.0719 | 0.06 | 0.0653 | 0.065 | 0.0601 | 0.0436 | 0.0663 | 0.0645 | 0.0583 | 0.0731 | 0.0871 | 0.0643
26 | S60T | 0.0574 | 0.0904 | 0.0696 | 0.0634 | 0.126 | 0.0758 | 0.0703 | 0.0666 | 0.0947 | – | – | – | 0.0718 | 0.0673 | 0.075 | 0.0785 | 0.0704 | 0.0819 | –
